Laboratory results from the supplement of paper PMC8728848.
The list shows a part of the results.

Tests used:
Test in all cases: glycan array binding signal (z-score within array); higher = stronger binding
Conditions in all cases: glycan notation: IUPAC condensed, linker removed
[1] = biological target: GlcNAc(b1-3)Gal(b1-3)GalNAc
In short: (§1)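 Glycan array data were curated from 3228 arrays in the Consortium for Functional Glycomics database and kept only where the protein sequence was available. Glycan names were converted to IUPAC-condensed notation, and columns mapping to the same glycan were averaged. The binding signal is a within-array Z-score, averaged across arrays of the same protein sequence at different concentrations or buffers and across linkers. Negative Z-scores can be read as non-binding.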

GlcNAc(b1-3)Gal(b1-4)Glc = biological target: GlcNAc(b1-3)Gal(b1-4)Glc
In short: as §1

[2] = biological target: GlcNAc(b1-3)Gal(b1-4)GlcNAc
In short: as §1

[3] = biological target: GlcNAc(b1-3)Gal(b1-4)GlcNAc(b1-2)Man(a1-3)[GlcNAc(b1-3)Gal(b1-4)GlcNAc(b1-2)Man(a1-6)]Man(b1-4)GlcNAc(b1-4)GlcNAc
In short: as §1

[4] = biological target: GlcNAc(b1-3)Gal(b1-4)GlcNAc(b1-2)Man(a1-3)[GlcNAc(b1-3)Gal(b1-4)GlcNAc(b1-2)Man(a1-6)]Man(b1-4)GlcNAc(b1-4)[Fuc(a1-6)]GlcNAc
In short: as §1

[5] = biological target: GlcNAc(b1-3)Gal(b1-4)GlcNAc(b1-2)[GlcNAc(b1-3)Gal(b1-4)GlcNAc(b1-6)]Man(a1-6)[GlcNAc(b1-3)Gal(b1-4)GlcNAc(b1-2)Man(a1-3)]Man(b1-4)GlcNAc(b1-4)GlcNAc
In short: as §1

[6] = biological target: GlcNAc(b1-3)Gal(b1-4)GlcNAc(b1-3)Gal(b1-4)GlcNAc
In short: as §1

[7] = biological target: GlcNAc(b1-3)Gal(b1-4)GlcNAc(b1-3)Gal(b1-4)GlcNAc(b1-2)Man(a1-3)[GlcNAc(b1-3)Gal(b1-4)GlcNAc(b1-3)Gal(b1-4)GlcNAc(b1-2)Man(a1-6)]Man(b1-4)GlcNAc(b1-4)GlcNAc
In short: as §1

[8] = biological target: GlcNAc(b1-3)Gal(b1-4)GlcNAc(b1-3)Gal(b1-4)GlcNAc(b1-2)Man(a1-3)[GlcNAc(b1-3)Gal(b1-4)GlcNAc(b1-3)Gal(b1-4)GlcNAc(b1-2)Man(a1-6)]Man(b1-4)GlcNAc(b1-4)[Fuc(a1-6)]GlcNAc
In short: as §1

[9] = biological target: GlcNAc(b1-3)Gal(b1-4)GlcNAc(b1-3)Gal(b1-4)GlcNAc(b1-2)[GlcNAc(b1-3)Gal(b1-4)GlcNAc(b1-3)Gal(b1-4)GlcNAc(b1-6)]Man(a1-6)[GlcNAc(b1-3)Gal(b1-4)GlcNAc(b1-3)Gal(b1-4)GlcNAc(b1-2)Man(a1-3)]Man(b1-4)GlcNAc(b1-4)[Fuc(a1-6)]GlcNAc
In short: as §1

[10] = biological target: GlcNAc(b1-3)Gal(b1-4)GlcNAc(b1-3)Gal(b1-4)GlcNAc(b1-3)Gal(b1-4)GlcNAc(b1-2)Man(a1-3)[GlcNAc(b1-3)Gal(b1-4)GlcNAc(b1-3)Gal(b1-4)GlcNAc(b1-3)Gal(b1-4)GlcNAc(b1-2)Man(a1-6)]Man(b1-4)GlcNAc(b1-4)GlcNAc
In short: as §1

[11] = biological target: GlcNAc(b1-3)Gal(b1-4)GlcNAc(b1-3)Gal(b1-4)GlcNAc(b1-3)Gal(b1-4)GlcNAc(b1-2)Man(a1-3)[GlcNAc(b1-3)Gal(b1-4)GlcNAc(b1-3)Gal(b1-4)GlcNAc(b1-3)Gal(b1-4)GlcNAc(b1-2)Man(a1-6)]Man(b1-4)GlcNAc(b1-4)[Fuc(a1-6)]GlcNAc
In short: as §1

[12] = biological target: GlcNAc(b1-3)Gal(b1-4)GlcNAc(b1-3)Gal(b1-4)GlcNAc(b1-3)Gal(b1-4)GlcNAc(b1-2)[GlcNAc(b1-3)Gal(b1-4)GlcNAc(b1-3)Gal(b1-4)GlcNAc(b1-3)Gal(b1-4)GlcNAc(b1-6)]Man(a1-6)[GlcNAc(b1-3)Gal(b1-4)GlcNAc(b1-3)Gal(b1-4)GlcNAc(b1-3)Gal(b1-4)GlcNAc(b1-2)Man(a1-3)]Man(b1-4)GlcNAc(b1-4)[Fuc(a1-6)]GlcNAc
In short: as §1

[13] = biological target: GlcNAc(b1-3)Gal(b1-4)GlcNAc(b1-3)Gal(b1-4)GlcNAc(b1-3)Gal(b1-4)GlcNAc(b1-3)Gal(b1-4)GlcNAc(b1-2)Man(a1-3)[GlcNAc(b1-3)Gal(b1-4)GlcNAc(b1-3)Gal(b1-4)GlcNAc(b1-3)Gal(b1-4)GlcNAc(b1-3)Gal(b1-4)GlcNAc(b1-2)Man(a1-6)]Man(b1-4)GlcNAc(b1-4)GlcNAc
In short: as §1

[14] = biological target: GlcNAc(b1-3)Gal(b1-4)GlcNAc(b1-3)Gal(b1-4)GlcNAc(b1-3)Gal(b1-4)GlcNAc(b1-3)Gal(b1-4)GlcNAc(b1-2)Man(a1-3)[GlcNAc(b1-3)Gal(b1-4)GlcNAc(b1-3)Gal(b1-4)GlcNAc(b1-3)Gal(b1-4)GlcNAc(b1-3)Gal(b1-4)GlcNAc(b1-2)Man(a1-6)]Man(b1-4)GlcNAc(b1-4)[Fuc(a1-6)]GlcNAc
In short: as §1

[15] = biological target: GlcNAc(b1-3)Gal(b1-4)GlcNAc(b1-3)Gal(b1-4)GlcNAc(b1-3)Gal(b1-4)GlcNAc(b1-3)Gal(b1-4)GlcNAc(b1-2)[GlcNAc(b1-3)Gal(b1-4)GlcNAc(b1-3)Gal(b1-4)GlcNAc(b1-3)Gal(b1-4)GlcNAc(b1-3)Gal(b1-4)GlcNAc(b1-6)]Man(a1-6)[GlcNAc(b1-3)Gal(b1-4)GlcNAc(b1-3)Gal(b1-4)GlcNAc(b1-3)Gal(b1-4)GlcNAc(b1-3)Gal(b1-4)GlcNAc(b1-2)Man(a1-3)]Man(b1-4)GlcNAc(b1-4)[Fuc(a1-6)]GlcNAc
In short: as §1

[16] = biological target: GlcNAc(b1-3)Gal(b1-4)GlcNAc(b1-3)Gal(b1-4)GlcNAc(b1-3)GalNAc
In short: as §1

[17] = biological target: GlcNAc(b1-3)Gal(b1-4)GlcNAc(b1-3)GalNAc
In short: as §1

[18] = biological target: GlcNAc(b1-3)Gal(b1-4)GlcNAc(b1-3)[GlcNAc(b1-3)Gal(b1-4)GlcNAc(b1-3)]GalNAc
In short: as §1

[19] = biological target: GlcNAc(b1-3)Gal(b1-4)GlcNAc(b1-6)[Gal(b1-3)]GalNAc
In short: as §1

[20] = biological target: GlcNAc(b1-3)Gal(b1-4)GlcNAc(b1-6)[GlcNAc(b1-3)Gal(b1-3)]GalNAc
In short: as §1

[21] = biological target: GlcNAc(b1-3)Gal(b1-4)GlcNAc(b1-6)[GlcNAc(b1-3)]Gal(b1-4)GlcNAc
In short: as §1

GlcNAc(b1-3)GalNAc = biological target: GlcNAc(b1-3)GalNAc
In short: as §1

GlcNAc(b1-3)Man = biological target: GlcNAc(b1-3)Man
In short: as §1

[22] = biological target: GlcNAc(b1-3)[GlcNAc(b1-4)][GlcNAc(b1-6)]GlcNAc
In short: as §1

[23] = biological target: GlcNAc(b1-3)[GlcNAc(b1-6)]Gal(b1-4)GlcNAc
In short: as §1

[24] = biological target: GlcNAc(b1-3)[GlcNAc(b1-6)]GalNAc
In short: as §1

[25] = biological target: GlcNAc(b1-4)Gal(b1-4)GlcNAc
In short: as §1

GlcNAc(b1-4)GlcNAc = biological target: GlcNAc(b1-4)GlcNAc
In short: as §1

[26] = biological target: GlcNAc(b1-4)GlcNAc(b1-4)GlcNAc
In short: as §1

[27] = biological target: GlcNAc(b1-4)GlcNAc(b1-4)GlcNAc(b1-4)GlcNAc(b1-4)GlcNAc
In short: as §1

[28] = biological target: GlcNAc(b1-4)GlcNAc(b1-4)GlcNAc(b1-4)GlcNAc(b1-4)GlcNAc(b1-4)GlcNAc
In short: as §1

[29] = biological target: GlcNAc(b1-4)[GlcNAc(b1-6)]GalNAc
In short: as §1

[30] = biological target: GlcNAc(b1-6)Gal(b1-4)GlcNAc
In short: as §1

GlcNAc(b1-6)GalNAc = biological target: GlcNAc(b1-6)GalNAc
In short: as §1

[31] = biological target: GlcNAc6S(b1-3)Gal(b1-4)GlcNAc
In short: as §1

Kdn(a2-3)Gal(b1-3)GalNAc = biological target: Kdn(a2-3)Gal(b1-3)GalNAc
In short: as §1

Kdn(a2-3)Gal(b1-3)GlcNAc = biological target: Kdn(a2-3)Gal(b1-3)GlcNAc
In short: as §1

Kdn(a2-3)Gal(b1-4)Glc = biological target: Kdn(a2-3)Gal(b1-4)Glc
In short: as §1

Kdn(a2-3)Gal(b1-4)GlcNAc = biological target: Kdn(a2-3)Gal(b1-4)GlcNAc
In short: as §1

[32] = biological target: Kdn(a2-3)Gal(b1-4)[Fuc(a1-3)]GlcNAc
In short: as §1

Kdn(a2-6)Gal(b1-4)GlcNAc = biological target: Kdn(a2-6)Gal(b1-4)GlcNAc
In short: as §1

[33] = biological target: Man(a1-2)Man(a1-2)Man(a1-3)Man
In short: as §1

[34] = biological target: Man(a1-2)Man(a1-2)Man(a1-6)[Man(a1-3)]Man
In short: as §1

Man(a1-2)Man(a1-3)Man = biological target: Man(a1-2)Man(a1-3)Man
In short: as §1

B1: CFEM-SCL (Saccharomyces cerevisiae), O13547 (protein)
chain: MRATTLLSSVVSLALLSKEVLATPPACLLACVAQVGKSSSTCDSLNQVTCYCEHENSAVKKCLDSICPNNDADAAYSAFKSSCSEQNASLGD
[1]
  glycan array binding signal (z-score): -0.194
GlcNAc(b1-3)Gal(b1-4)Glc
  glycan array binding signal (z-score): -0.247
[2]
  glycan array binding signal (z-score): -0.176
[3]
  glycan array binding signal (z-score): -0.213
[4]
  glycan array binding signal (z-score): -0.119
[5]
  glycan array binding signal (z-score): 0.511
[6]
  glycan array binding signal (z-score): -0.311
[7]
  glycan array binding signal (z-score): 0.843
[8]
  glycan array binding signal (z-score): 0.04
[9]
  glycan array binding signal (z-score): 0.009
[10]
  glycan array binding signal (z-score): -0.181
[11]
  glycan array binding signal (z-score): 0.129
[12]
  glycan array binding signal (z-score): -0.17
[13]
  glycan array binding signal (z-score): -0.141
[14]
  glycan array binding signal (z-score): -0.181
[15]
  glycan array binding signal (z-score): -0.199
[16]
  glycan array binding signal (z-score): -0.207
[17]
  glycan array binding signal (z-score): -0.278
[18]
  glycan array binding signal (z-score): -0.26
[19]
  glycan array binding signal (z-score): 0.774
[20]
  glycan array binding signal (z-score): -0.317
[21]
  glycan array binding signal (z-score): -0.268
GlcNAc(b1-3)GalNAc
  glycan array binding signal (z-score): -0.175
GlcNAc(b1-3)Man
  glycan array binding signal (z-score): -0.281
[22]
  glycan array binding signal (z-score): -0.239
[23]
  glycan array binding signal (z-score): -0.248
[24]
  glycan array binding signal (z-score): -0.309
[25]
  glycan array binding signal (z-score): -0.285
GlcNAc(b1-4)GlcNAc
  glycan array binding signal (z-score): -0.288
[26]
  glycan array binding signal (z-score): -0.291
[27]
  glycan array binding signal (z-score): -0.275
[28]
  glycan array binding signal (z-score): -0.126
[29]
  glycan array binding signal (z-score): -0.294
[30]
  glycan array binding signal (z-score): 0.154
GlcNAc(b1-6)GalNAc
  glycan array binding signal (z-score): -0.285
[31]
  glycan array binding signal (z-score): 0.208
Kdn(a2-3)Gal(b1-3)GalNAc
  glycan array binding signal (z-score): -0.177
Kdn(a2-3)Gal(b1-3)GlcNAc
  glycan array binding signal (z-score): -0.26
Kdn(a2-3)Gal(b1-4)Glc
  glycan array binding signal (z-score): -0.324
Kdn(a2-3)Gal(b1-4)GlcNAc
  glycan array binding signal (z-score): -0.263
[32]
  glycan array binding signal (z-score): -0.086
Kdn(a2-6)Gal(b1-4)GlcNAc
  glycan array binding signal (z-score): -0.312
[33]
  glycan array binding signal (z-score): 0.113
[34]
  glycan array binding signal (z-score): -0.198
Man(a1-2)Man(a1-3)Man
  glycan array binding signal (z-score): -0.279
